According to PubChem BioAssay AID1159614 (National Center for Advancing Translational Sciences (NCATS), 2016):
Screen size: about 45,000 compounds; about 65 (0.1%) were called active. Calls follow the shape of the dose curve; as a rule, active = well fitted activation curve with a large enough effect; inconclusive = small, poorly fitted or top-dose-only effect; inactive = no such curve, though single readings can be large or run the other way. The list shows a part of the results.

Molecular target: Galactocerebrosidase (Homo sapiens) (UniProt P54803)
UniProt P54803, sequence (P54803 whole entry, looked up): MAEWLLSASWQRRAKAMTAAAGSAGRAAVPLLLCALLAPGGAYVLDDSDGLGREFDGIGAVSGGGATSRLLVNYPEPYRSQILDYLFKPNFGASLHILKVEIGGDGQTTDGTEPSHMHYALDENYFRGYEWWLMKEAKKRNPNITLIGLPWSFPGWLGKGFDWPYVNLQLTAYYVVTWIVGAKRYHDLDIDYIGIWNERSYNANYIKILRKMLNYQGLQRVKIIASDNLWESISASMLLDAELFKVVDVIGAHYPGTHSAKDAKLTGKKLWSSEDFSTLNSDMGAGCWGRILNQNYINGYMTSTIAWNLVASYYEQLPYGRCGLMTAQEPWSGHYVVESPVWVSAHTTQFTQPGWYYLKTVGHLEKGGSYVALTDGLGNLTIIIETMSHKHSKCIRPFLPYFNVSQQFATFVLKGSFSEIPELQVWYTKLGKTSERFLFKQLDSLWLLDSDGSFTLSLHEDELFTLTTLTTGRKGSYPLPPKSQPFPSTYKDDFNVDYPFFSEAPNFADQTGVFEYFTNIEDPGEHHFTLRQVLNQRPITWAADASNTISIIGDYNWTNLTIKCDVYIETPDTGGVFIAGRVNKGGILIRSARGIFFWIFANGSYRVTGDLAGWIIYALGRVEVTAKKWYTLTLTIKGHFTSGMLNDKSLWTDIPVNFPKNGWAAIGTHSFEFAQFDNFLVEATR
Experiment: A Novel Cell-Based Assay to Identify Small Molecules for B -Galactocerebrosidase; also: 0% is about no effect; nearly all actives have a fitted effect of over 65% in size
Settings: 145M-Twi-hGALC-G270D cells (Twitcher mouse brain line with human GALC G270D), HMU-beta-Gal fluorescence, 48 h; series mostly up to 57.5 µM; activation: at the top concentration
Method in brief: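 Fluorogenic HMU-b-Gal hydrolysis (0.1 mM final, pH 5.2 citrate-phosphate with 1 mg/mL sodium taurocholate; carbonate stop buffer) measures mutant GALC activity after compound treatment of live 145M-Twi Twitcher brain cells stably carrying human GALC-G270D, with wild-type GALC line alongside; activation sought.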

activation, inactive:
O=S(=O)(c1ccc2nc(N3CCN(c4ccccc4)CC3)ccc2c1)N1CCCCC1 -8.81%
COc1ccc(Nc2cc(C(=O)NCc3ccccc3)c3ccccc3n2)c(OC)c1 -14.7%
Cc1cccc(NC(=O)CSc2nc3c(oc4ccccc43)c(=O)n2-c2ccc(F)cc2)c1 -8.23%
COc1ccc2c(CNCCc3ccccc3)c(C(=O)O)n(Cc3cccc(F)c3)c2c1 -3.01%
Cc1ccc(NC(=O)CC(C)S(=O)(=O)c2ccc3c(c2)NC(=O)CO3)cc1C (stereo not given) -16.1%
CCOc1ccc(-c2cn3c(n2)sc2cc(C(=O)NC4CCCc5ccccc54)ccc23)cc1 (stereo not given) -12.1%
CSc1nnc2[nH]c(=O)cc(C)n12 -13.3%
Cc1cc(-c2ccc(S(=O)(=O)Nc3ccc(Br)c(C)c3)s2)on1 -6.81%
COc1ccc(CNC(=O)C2Cc3cc(S(=O)(=O)N4CCCCCC4)ccc3N2C(C)=O)cc1 (stereo not given) 0.483%
O=c1c2cnn(-c3ccc(F)cc3)c2ncn1Cc1ccc(F)cc1 -6.04%
Cc1cccc(NC(=O)Cc2ccc(-n3c(C)nc4cccnc43)cc2)c1C -3.61%
COc1ccc(Cl)cc1NC(=O)Cn1cc2c(n1)CCC(C)C2 (stereo not given) -11.9%
Cc1ccc(-c2nc(C)c(CCNC(=O)C(=O)Nc3ccc4c(c3)OCO4)s2)cc1 -17.9%
COc1ccc(CCN2C(=O)N(c3ccccc3)C(=O)C2CC(=O)Nc2ccccc2)cc1 (stereo not given) -9.81%
CC(=O)c1cccc(NC(=O)c2cc3nc(-c4ccc(Br)cc4)cc(C(F)(F)F)n3n2)c1 -2.91%
COc1ccc(CNC(=O)c2ccc(-c3nc(CSc4ccccc4)c(C)o3)cc2)c(OC)c1 -11.5%
CCc1ccc(NC(=O)c2cc3c([nH]c2=O)CC(C)(C)CC3=O)cc1 -8.54%
N#Cc1c[nH]n2c(NC3CCCCC3)c(-c3cccc(Cl)c3)nc12 -1.2%
CCOc1ccc2oc(=O)cc(CN3CCN(c4ccccc4)CC3)c2c1 1.18%
COc1cc(C(=O)N2CC(=O)Nc3ccc(C)cc3C2c2ccc(F)cc2)cc(OC)c1OC (stereo not given) 1.96%
Cc1nc(N2CCOCC2)c2c(C(=O)N3CCN(c4cccc(C)c4C)CC3)c(C)oc2n1 -3.48%
CCCN1C(=O)C2(c3ccccc31)c1c(oc3ccc(C)cc3c1=O)C(=O)N2CCOC (stereo not given) -13.5%
CCOC(=O)C1CCN(CCC(=O)Nc2ccc(OC)cc2)CC1 -10.9%
COc1ccc(Nc2cc(C)c3cc(NC(=O)c4cc(OC)cc(OC)c4)ccc3n2)cc1 -8.5%
Cc1ccc(C)c(NC(=O)NCc2ccc3c(c2)CCN3C(=O)c2ccccc2)c1 -20.2%
Cc1cc(C)c(NC(=O)CCC(=O)N2Cc3ccccc3Oc3ncccc32)c(C)c1 -11.8%
COC(=O)c1ccccc1NC(=O)Cn1c(=O)n(CCCC(=O)NCCc2ccc(OC)c(OC)c2)c(=O)c2ccccc21 -7.39%
CCCOc1ccc(C2c3c(oc4ccccc4c3=O)C(=O)N2c2nc(C)c(C(=O)OCC)s2)cc1 (stereo not given) -13.4%
COc1ccc(S(=O)(=O)NCc2ccc(C(=O)NCc3ccccc3)cc2)cc1 -15.9%
CC(C)c1ccc(NC(=O)C2(C)Cc3ccccc3C(=O)O2)cc1 (stereo not given) -9.17%
CC(=O)c1ccc(N2CCN(C(=O)c3ccc(Cn4c(=O)[nH]c5ccccc5c4=O)cc3)CC2)cc1 -4.22%
CCN1CCC(N(Cc2ccc(F)cc2)C(=O)Nc2cc(Cl)ccc2C(=O)OC)CC1 -8.88%
CC(C)C(NS(=O)(=O)c1cccc2cccnc12)C(=O)Nc1ccc(OC(F)(F)F)cc1 (stereo not given) -18.9%
Cc1ccc2c(c1)-c1c(cnn1CC(=O)N1CCN(c3cc(Cl)ccc3C)CC1)CO2 -5.11%
COc1ccc(-c2cc(C(F)(F)F)c(C#N)c(SCC(=O)Nc3ccccc3F)n2)cc1 -9.08%
CCC(C)Sc1c(C(C)C)cnc2c1c(=O)n(C)c(=O)n2C (stereo not given) -1.91%
COc1cccc(CN2C(=O)CN(C3CCCCC3)C(=O)C2c2ccc(OC)c(OC)c2)c1 (stereo not given) 1.18%
CCOc1ccc(CNC(=O)C2CCN(S(=O)(=O)c3cn(C)cn3)CC2)cc1OC -6.73%
COc1ccc(C2C=C(c3ccccc3)Nc3nc(NC(=O)/C=C/c4ccc(F)cc4)nn32)cc1 (stereo not given) -6.45%
COc1ccc2c(c1)c1c(c(=O)n(-c3ccccc3C)c(=O)n1CC(=O)N1CCCC1)n2C 28.3%
COc1ccccc1C(=O)Nc1ccc(OCc2cc(=O)n3ccc(C)cc3n2)cc1 -10.2%
COc1ccc(CNC(=O)c2cnn(-c3ccc(C)cc3)c2-n2cccc2)cc1OC -3.44%
COc1ccc(-n2c(/C=C/c3c(C)[nH]c4ccccc34)nc3ccccc3c2=O)cc1 12%
Cc1nn(C)c2c1c(-c1ccccc1)cc(=O)n2Cc1ccc(Cl)cc1 8.04%
COc1cccc(CNc2nccn(-c3ccc(OC)c(OC)c3)c2=O)c1 -7.95%
O=C(OCc1cccc(C(F)(F)F)c1)c1ccc(-c2nnn(Cc3ccc(F)cc3)n2)cc1 1.93%
CCn1c(=N)c(C(=O)NC2CCCC2)cc2c(=O)n3ccccc3nc21 -11.2%
CCN(C(=O)c1cn(-c2ccc(OC)cc2)c(=O)c2ccccc12)c1cccc(Cl)c1 6.24%
Cc1nn(C(=O)c2ccccc2)c(C)c1S(=O)(=O)N1CCCCCC1 36.1%
COc1ccc(C)cc1-n1c(-c2ccc(C)cc2)cc2c1CC(C)(C)CC2=O -20.3%
O=C(Cn1c2ncccc2c(=O)n1-c1ccccc1)Nc1ccc(Cl)cc1C(F)(F)F -20.2%
COCc1cc(C)nc2sc3c(c12)NC(c1ccc(O)cc1)N(c1ccc(C)cc1)C3=O (stereo not given) -7.73%
Cc1cccc(C(=O)Nc2ccc3oc(-c4ccncc4)nc3c2)c1 -23%
COc1ccc2c(c1)C=C(C(=O)NCc1cc(Br)ccc1OC)CO2 -1.33%
CCCCCn1cc2c(c1-c1ccc(Cl)cc1)c(=O)n(C)c(=O)n2C -23.3%
CCc1ccccc1NC(=O)c1sc(-n2nc(C)c(Cc3ccc4c(c3)OCO4)c2C)nc1C 9.56%
CCOC(=O)C1CCCN(S(=O)(=O)c2ccc3[nH]c(=O)oc3c2)C1 (stereo not given) -14%
COc1ccccc1NC(=O)c1sc2ncn(Cc3ccccc3Cl)c(=O)c2c1C -10.8%
CC(C)N1CCc2nc(SCC(=O)Nc3cccc(F)c3)[nH]c(=O)c2C1 -6.3%
COc1ccc(-c2nc3scc(CCNC(=O)c4cc(OC)cc(OC)c4)n3n2)cc1 -14.9%
